In the experiment the target is T1, E. coli cysteine desulfurase IscS (Escherichia coli), P0A6B7.
T1 chain: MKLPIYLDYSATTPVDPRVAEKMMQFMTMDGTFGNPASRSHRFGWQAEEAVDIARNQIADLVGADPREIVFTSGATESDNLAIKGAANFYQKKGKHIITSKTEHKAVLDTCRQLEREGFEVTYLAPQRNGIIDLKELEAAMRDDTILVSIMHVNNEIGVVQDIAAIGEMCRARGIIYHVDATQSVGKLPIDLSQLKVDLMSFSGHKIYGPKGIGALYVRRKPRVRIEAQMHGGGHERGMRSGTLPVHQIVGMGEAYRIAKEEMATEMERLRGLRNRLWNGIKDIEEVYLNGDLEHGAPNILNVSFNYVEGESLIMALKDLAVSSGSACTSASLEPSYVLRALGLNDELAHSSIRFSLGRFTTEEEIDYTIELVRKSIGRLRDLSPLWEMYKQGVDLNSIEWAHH
Kind of experiment: native MS. To be noted: remark: other sources report otherwise.

B1: E. coli cysteine desulfurase IscS, P0A6B7 1-404 (enzyme)
chain: MKLPIYLDYSATTPVDPRVAEKMMQFMTMDGTFGNPASRSHRFGWQAEEAVDIARNQIADLVGADPREIVFTSGATESDNLAIKGAANFYQKKGKHIITSKTEHKAVLDTCRQLEREGFEVTYLAPQRNGIIDLKELEAAMRDDTILVSIMHVNNEIGVVQDIAAIGEMCRARGIIYHVDATQSVGKLPIDLSQLKVDLMSFSGHKIYGPKGIGALYVRRKPRVRIEAQMHGGGHERGMRSGTLPVHQIVGMGEAYRIAKEEMATEMERLRGLRNRLWNGIKDIEEVYLNGDLEHGAPNILNVSFNYVEGESLIMALKDLAVSSGSACTSASLEPSYVLRALGLNDELAHSSIRFSLGRFTTEEEIDYTIELVRKSIGRLRDLSPLWEMYKQGVDLNSIEWAHH
modifications: here or on the partner: PLP (5'-pyridoxal phosphate) cofactor; PLP (5'-pyridoxal phosphate) cofactor
On to B1, for which the stoichiometry N is 2.

Values taken from publication PMC7262672.
